# Assay results reported in a collection of fitness landscapes (doi:10.1016/j.celrep.2020.107928).
# Whole data set: some 81,000 sequences, median “one-hybrid fitness for binding NBS DNA” near -0.1, cut for the highest 2% near 0.36. Some of the results follow.
# B1: Caulobacter ParB omega fusion; a variant is named by its letters at X, in order, B8GW30 (parent)
# chain: MESVVVGEPGMSEGRRGLGRGLSALLGEVDAAPAQAPGEQLGGSREAPIEILQRNPDQPRRTFREEDLEDLSNSIREKGVLQPILVRPSPDTAGEYQIVAGERAWRAAQRAGLKTVPIMVRELDDLAVLEIGIIENVQRADLNVLEEALSYKVLMEKFERTQENIAQTIGKSXSHVANXMRLLXLPDEVQSYLVSGELTAXHARAIAAAADPVALAKQIIEGGLSVRETEALARKAPNLSAGKSKGGRPPRVKDTDTQALESDLSSVLGLDVSIDHRGSTGTLTITYATLEQLDDLCNRLTRGI
# Variants of: B1
# Test: one-hybrid fitness for binding NBS DNA (the Noc-binding site; scaled: cognate 1, non-cognate 0); higher = stronger binding
# Details: with NBS DNA site
# Outline: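 In E. coli USO, a HIS3 reporter with its site placed 19 bp from the promoter was used to select Caulobacter ParB variants randomised at four specificity codons. Growth lasted 48 hours at 37°C on histidine-free M9 containing 0.1 mM IPTG and 5 mM 3-AT. Fitness was taken as the log change in variant-to-wild-type read ratio from Illumina sequencing of pre- and post-selection plasmids, rescaled between the non-cognate and cognate sites.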
row,Variant,one-hybrid fitness for binding NBS DNA
1,YCQD,≤ 0.2
2,WMDG,≤ 0.2
3,RADP,≤ 0.2
4,LNPF,≤ 0.2
5,VLAA,≤ 0.2
6,QFAL,≤ 0.2
7,PAPK,≤ 0.2
8,PQMK,≤ 0.2
9,IGSH,≤ 0.2
10,TFPT,≤ 0.2
11,VMDR,≤ 0.2
12,SCRC,≤ 0.2
13,STRD,≤ 0.2
14,QPIN,≤ 0.2
15,RFDE,≤ 0.2
16,RVSA,≤ 0.2
17,DNKI,≤ 0.2
18,LGWI,≤ 0.2
19,RIVY,≤ 0.2
20,RGYR,≤ 0.2
21,TPIH,≤ 0.2
22,TAHQ,≤ 0.2
23,PKGC,≤ 0.2
24,MILR,≤ 0.2
25,HSRV,≤ 0.2

row,Variant,one-hybrid fitness for binding NBS DNA
1,RPDE,≤ 0.2
2,RWKK,≤ 0.2
3,YSTN,≤ 0.2
4,TYAS,≤ 0.2
5,VFKP,≤ 0.2
6,ACSP,≤ 0.2
7,ADKV,≤ 0.2
8,GMQL,≤ 0.2
9,RVIM,≤ 0.2
10,YKEG,≤ 0.2
11,VRQV,≤ 0.2
12,YHRR,≤ 0.2
13,HTWG,≤ 0.2
14,PVET,≤ 0.2
15,YPVV,≤ 0.2
16,DHDL,≤ 0.2
17,YTMS,≤ 0.2
18,QAGV,≤ 0.2
19,GKPL,≤ 0.2
20,QHIC,≤ 0.2
21,ILLE,≤ 0.2
22,IATG,≤ 0.2
23,RVTL,≤ 0.2
24,EIMS,≤ 0.2
25,EKAC,≤ 0.2

row,Variant,one-hybrid fitness for binding NBS DNA
1,KLTP,≤ 0.2
2,RYDM,≤ 0.2
3,LAYT,≤ 0.2
4,QQPV,0.227
5,GMNI,≤ 0.2
6,YRAC,≤ 0.2
7,AEFI,≤ 0.2
8,PRGN,≤ 0.2
9,CHLK,≤ 0.2
10,HIGG,≤ 0.2
11,DMET,≤ 0.2
12,QPQW,≤ 0.2
13,NTMM,≤ 0.2
14,PLPF,≤ 0.2
15,RTNN,≤ 0.2
16,CKDS,≤ 0.2
17,LAQP,≤ 0.2
18,RRYQ,0.207
19,VRMW,≤ 0.2
20,GNRP,≤ 0.2
21,NMVV,≤ 0.2
22,NRNV,≤ 0.2
23,SAFN,≤ 0.2
24,FTRM,≤ 0.2
25,FTTA,≤ 0.2

row,Variant,one-hybrid fitness for binding NBS DNA
1,YGIR,≤ 0.2
2,PDDR,≤ 0.2
3,CHGR,≤ 0.2
4,AGLW,≤ 0.2
5,TQYG,≤ 0.2
6,LRTD,≤ 0.2
7,GNTT,≤ 0.2
8,ECYV,≤ 0.2
9,NGSI,≤ 0.2
10,RSWV,≤ 0.2
11,FCAD,≤ 0.2
12,SLES,≤ 0.2
13,LCCG,≤ 0.2
14,QALR,0.424
15,ILDR,≤ 0.2
16,PGEM,≤ 0.2
17,QKDK,≤ 0.2
18,GIMR,≤ 0.2
19,YFKG,≤ 0.2
20,SSAG,≤ 0.2
21,HARD,≤ 0.2
22,SGRF,≤ 0.2
23,DIGV,≤ 0.2
